# PubChem BioAssay AID1508623 (National Center for Advancing Translational Sciences (NCATS), 2021)
# The campaign covered roughly 48,000 compounds. About 450 (0.94%) were called active. Inconclusive results (about 19%) are left out. The call rests on the fitted dose curve; in most records, active means well fitted inhibition curve with a large enough effect; inconclusive means small, poorly fitted or top-dose-only effect; inactive means no such curve, though single readings can be large or run the other way. The list shows a part of the results.
# Assay: Primary qHTS for Identification of Small Molecule Inhibitors of Huntingtin Promoter Activity; further: nearly all actives have a fitted effect of over 50% in size
# Conditions: HEK293 HTT promoter firefly luciferase reporter (activity 0% = vehicle and -100% = no light), 24 h; series mostly up to 57.5 µM; activity change, negative = inhibition: at the top concentration
# Procedure, shortened: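 Quantitative HTS used concentration series of up to 57.5 uM final on HEK293 luciferase reporter cells, 24 h at 37 degrees C. Readout was Dual-Glo firefly luminescence.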
# Potency means the concentration at half of the fitted maximal effect.
Compound,"activity change, negative = inhibition",Potency
COc1ccc(C)cc1NC(=O)Nc1ccccc1OCc1cc(=O)n2ccccc2n1,inactive: -11.2%,–
CCCCNC(=O)c1cnc2sc(N3CCCCCC3)nn2c1=O,inactive: 1.91%,–
Cc1cc(C)c(NC(=O)C(=O)NCC(c2cccnc2)N2CCN(Cc3ccccc3)CC2)c(C)c1 (centres undefined),inactive: -13.8%,–
Cc1ccccc1-c1noc(-c2ccc(N3CCN(C)CC3)c([N+](=O)[O-])c2)n1,–,active: 2.24 µM
COc1ccc2c(c1)c1c(c(=O)n(-c3ccccc3)c(=O)n1CC(=O)NCc1ccc(C)cc1)n2C,inactive: -9.97%,–
COc1ccc(CC(=O)N(Cc2nc(-c3ccc(C)cc3)no2)C(C)C)cc1,inactive: -25.4%,–
O=C(CSc1nc2nccnc2c(=O)n1CCc1c[nH]c2ccccc12)Nc1ccc(F)cc1,inactive: -21.6%,–
COc1ccc(-n2cc(C(=O)OCc3ccc(Cl)cc3)c3ccccc3c2=O)cc1,inactive: 11%,–
CN(C)c1ccc(C(CNS(=O)(=O)c2ccc(F)cc2)N2CCOCC2)cc1 (centres undefined),inactive: -17.1%,–
Cc1c(C(=O)OC2CCCCCC2)[nH]c2c1C(=O)CC(c1ccc(N(C)C)cc1)C2 (centres undefined),inactive: -0.0662%,–
COc1cc(OC)cc(C(=O)Nc2cc(-c3nc4cccnc4s3)ccc2C)c1,inactive: -15.2%,–
CCOc1ccc(Nc2sc(C(=O)c3cccc(OC)c3)c(N)c2S(=O)(=O)c2ccccc2)cc1,inactive: -8.82%,–
COc1ccc(NC(=O)C2CCN(S(=O)(=O)c3ccc4c(c3)CCCC(=O)N4)CC2)c(OC)c1,inactive: -27.6%,–
Cn1c(=O)c(=O)n(C)c2cc(S(=O)(=O)N3CCCC3C(=O)Nc3ccc(F)cc3)ccc21 (centres undefined),inactive: -11.3%,–
CCOc1ccc(CNC(=O)Cn2ccc3cc(S(=O)(=O)N4CCCCC4)ccc32)cc1,inactive: -19.6%,–
COc1ccc(S(=O)(=O)N(CC(=O)NCCSCc2ccccc2)c2ccc(C)cc2)cc1,inactive: -15.3%,–
Cc1ccc(S(=O)(=O)NCc2ccc(C(=O)NCCc3cccc(C)c3)cc2)cc1,inactive: -8.6%,–
O=C(c1ccccc1Br)N1CCC(c2nc3ccccc3o2)CC1,inactive: -20.2%,–
Cc1ccc(Cn2c(=O)n(-c3cc(C)cc(C)c3)c(=O)c3oc4ccccc4c32)cc1,inactive: -2.69%,–
O=S(=O)(c1ccc(-n2cnnn2)cc1)N1CCN(c2cccc(C(F)(F)F)c2)CC1,inactive: -7.14%,–
Cc1ccsc1CN(C(=O)COc1cccc(C)c1C)C1CCS(=O)(=O)C1 (centres undefined),inactive: -23.5%,–
COc1cc(Cl)c(C)cc1NC(=O)c1sc2nc(C)cc(C)c2c1N,inactive: 3.8%,–
COc1cc(C(=O)N(Cc2cccnc2)c2nc3cc(C)c(C)cc3s2)cc(OC)c1OC,inactive: -30.6%,–
CCOC(=O)COc1ccc(F)cc1C(=O)c1ccn2nc(-c3ccc(C)cc3)cc2n1,inactive: -7.67%,–

Compound,"activity change, negative = inhibition",Potency
COc1ccccc1NC(=O)C(Cc1ccccc1)NS(=O)(=O)c1cccc2nsnc12 (centres undefined),inactive: -36%,–
COC(=O)c1ccc(Cl)cc1NC(=O)N(Cc1ccc(OC)cc1)C1CCN(C(C)=O)CC1,inactive: -10.3%,–
COc1ccc(OC)c(NC(=O)CSc2nc3ccccc3c(=O)n2CCC(=O)NC2CCCCC2)c1,inactive: 9.96%,–
Cc1ccc(N2CCN(C(=O)NCc3noc4ccc(C)cc34)CC2)c(C)c1,inactive: -9.07%,–
Cc1ccccc1C(=O)N(Cc1ccc(N(C)C)cc1)CC1CCCO1 (centres undefined),inactive: -0.473%,–
CC(C)(C)OC(=O)Nc1ccc(-c2cc(C(=O)NCCCCCCC(=O)NO)no2)cc1,inactive: -10.7%,–
COc1ccccc1NC(=O)CSC1=Nc2ccccc2C2=NC(CC(=O)NCc3ccc4c(c3)OCO4)C(=O)N12 (centres undefined),inactive: 0%,–
CCOC(=O)c1noc2ncnc(NCc3ccccc3OC)c12,inactive: -12.9%,–
COc1ccccc1N=C1SC(C(=O)Nc2ccccc2OC)CC(=O)N1C (centres undefined),inactive: -10.4%,–
O=C(NCCOCCn1c(=O)oc2ccccc21)Nc1cccc(Cl)c1,inactive: -2.91%,–
COC(=O)c1ccccc1NC(=O)C1CCCN(c2ncnc3onc(C)c23)C1 (centres undefined),inactive: -5.85%,–
Cc1ccc(CNC(=O)c2sc3nc4n(c(=O)c3c2C)CCCCC4)cc1,inactive: -2.72%,–
CC(C)c1ccc(NC(=O)c2ccc3c(O)c(S(=O)(=O)c4ccccc4)c(=O)[nH]c3c2)cc1,inactive: 1.3%,–
O=c1c2ccccc2n2c(-c3ccccc3F)nnc2n1CCc1ccccc1,inactive: -22.5%,–
COc1cc(OC)c(N(C)C(=O)c2cc3c(=O)oc4ccccc4c3s2)cc1Cl,inactive: -4.02%,–
Cc1ccc(-n2nc(C(=O)N(C)Cc3ccccc3)c3c4ccccc4n(C)c3c2=O)cc1,inactive: -13.2%,–
Cc1ccc(-n2c(=O)c3c(c4cc(C)ccc4n3C)n(Cc3ccc(F)cc3)c2=O)cc1,inactive: 11.2%,–
CCCCNC(=O)CCn1c(=O)c2cccn2c2cccnc21,inactive: 3.9%,–
CCN(C(=O)c1c(C)oc2ncn(CC(C)C)c(=O)c12)c1cccc(Cl)c1,inactive: -6.41%,–
Cc1oc(-c2ccc(C(=O)NCc3ccccc3Cl)cc2)nc1CN1CCc2ccccc21,–,active: 14.1 µM
CCCn1c(CCC(=O)Nc2ccc(C)c(Cl)c2)nc2cccnc21,inactive: -37.2%,–
O=C(CC1N=C2c3ccccc3N=C(SCc3cccc(Cl)c3)N2C1=O)NCCc1ccccc1 (centres undefined),inactive: -14.1%,–
CCCS(=O)(=O)N1CC(=O)N(c2ccc(C)cc2C)C(C)(C(=O)NC2CCCCCC2)C1 (centres undefined),inactive: -1.73%,–
O=C(Cn1c(=O)nc(-c2ccccc2)c2cc(Cl)ccc21)NCc1ccc(Cl)cc1,inactive: -24%,–

Compound,"activity change, negative = inhibition",Potency
COc1ccc(CCNS(=O)(=O)c2cc(-c3onc(C)c3C)ccc2OC)cc1OC,inactive: -4.19%,–
CCOc1ccc(CCNC(=O)c2ccc3c(c2)N(Cc2ccccc2F)C(=O)c2ccccc2S3=O)cc1OCC (centres undefined),inactive: -9.97%,–
O=C(CCS(=O)(=O)c1cc2c3c(c1)CCN3C(=O)CC2)Nc1cccc(Br)c1,inactive: -1.67%,–
CCc1ccc(NC(=O)CSc2nc(=O)n(Cc3ccncc3)c3c2CCC3)cc1,inactive: -27.7%,–
O=C(COCc1cc(-c2ccc3c(c2)OCO3)on1)Nc1cc(C(F)(F)F)ccc1Cl,inactive: -2.32%,–
Cc1cc2c(cc1S(=O)(=O)CCC(=O)N1CCCCC1C)OCC(=O)N2 (centres undefined),inactive: -3.24%,–
CCOC(=O)N1CCc2c(sc(NCc3cccs3)c2C(=O)Nc2ccc(OC)cc2OC)C1,–,active: 7.94 µM
CCCCN(C)CCNC(=O)CN1C(=O)CSc2ccc(S(=O)(=O)N3CCCCC3)cc21,inactive: -1.24%,–
O=c1c(S(=O)(=O)c2ccccc2)cn(Cc2cccc(F)c2)c2cc(N3CCCC3)c(F)cc12,inactive: -7.96%,–
Cc1ccc2oc(=O)n(Cc3ccccc3Cl)c2c1,inactive: 4.82%,–
Cc1ccc2oc(-c3cc(NC(=O)c4oc5ccccc5c4C)ccc3Cl)nc2c1,inactive: -12.9%,–
CCc1ccc(OCC(=O)Nc2cc(-c3nc4cc(C)ccc4o3)ccc2C)cc1,inactive: -2.16%,–
CCCNC(=O)C1CCC(CNS(=O)(=O)c2ccc3c(c2)CC(C)N3C(C)=O)CC1 (centres undefined),inactive: -14%,–
CN(Cc1ccc(F)cc1)S(=O)(=O)c1nnc(NC(=O)c2ccccc2)s1,inactive: -10%,–
Cc1ccc(NC(=O)c2oc3ccccc3c2NC(=O)C23CC4CC(CC(C4)C2)C3)cc1,inactive: -11.7%,–
Cc1ccc(C(=O)NCc2ccccc2)cc1NC(=O)c1nsc2ccccc12,inactive: -0.455%,–
CCOC(=O)c1c(C)[nH]c(C)c1S(=O)(=O)N1CCC(C(=O)Nc2ccc(C)c(N(C)C)c2)CC1,inactive: -15.5%,–
Cn1cc(C(=O)NCCc2ccccc2)c(=O)c2cc(S(=O)(=O)N3CCCCC3)ccc21,inactive: -2.52%,–
CCc1ccc(N2C(=O)CN(S(=O)(=O)CC)CC2(C)C(=O)NC2CCCCC2)cc1 (centres undefined),inactive: -1.72%,–
O=C(CNC(=O)c1ccccc1)OCc1cc(=O)n2nc(C3CC3)sc2n1,inactive: -13.8%,–
CCC1CCCCN1C(=O)CCS(=O)(=O)c1cc2c(cc1C)NC(=O)CO2 (centres undefined),inactive: -5.8%,–
O=c1c2oc3ccccc3c2n(Cc2ccc(Cl)cc2)c(=O)n1Cc1ccccc1,inactive: -16%,–
CC=CCC=CCCC(=O)[C@H]1O[C@@H]1C(N)=O,inactive: 6.54%,–
Cc1ccc(Nc2c(-c3ccc(C)o3)nc3cccc(C)n23)cc1,inactive: 10.2%,–

Compound,"activity change, negative = inhibition",Potency
Cc1cc(C)cc(-n2c(SCC(=O)N3CCCCCC3)nc3c([nH]c4ccccc43)c2=O)c1,inactive: -15.2%,–
O=C(Nc1cc(F)ccc1F)c1ccc(CN2CC(=O)N3CCCCC3C2=O)cc1 (centres undefined),inactive: -23.2%,–
COc1ccc(-c2cc(=O)oc3c4c(ccc23)OCN(Cc2ccccc2)C4)cc1,inactive: -21.2%,–
COc1cc(Cl)c(C)cc1NC(=O)Cn1c(C)c2cnn(-c3ccccc3)c(=O)c2c1C,inactive: -7.53%,–
C=C(C)Cn1c(SCC(=O)c2ccccc2)nc2sc3c(c2c1=O)CCCC3,inactive: -17%,–
CC(=O)Nc1c(C)nn(-c2ccccc2)c1N1CCC(C(=O)NCc2ccc(F)cc2)CC1,inactive: -10.8%,–
CC(=O)c1ccc(NC(=O)CSc2nnc(N)s2)cc1,inactive: 9.15%,–
CCOCCn1c(N2CCCN(C)CC2)nc2ccccc21,inactive: -1.71%,–
COc1cc2c(cc1NC(=O)COc1ccc(Cl)cc1)oc1ccccc12,inactive: -6.86%,–
COc1ccc(NC(=O)Cn2c(=O)n(Cc3ccco3)c(=O)c3oc4ccccc4c32)cc1Cl,inactive: -5.88%,–
COc1ccc(-n2ncc3c2ncn2nc(Cc4ccccc4)nc32)cc1,inactive: -17.8%,–
Cc1ccccc1CNCc1c(C(=O)O)c(C)n(Cc2ccc(F)cc2Cl)c1C,inactive: -13.6%,–
Cc1cccn2c(=O)c(-c3nnn[nH]3)cnc12,inactive: -7.21% [at 25.2 µM],–
Cc1nnc(N2CCC(C(=O)NC(C)C)CC2)c2nn(-c3ccccc3)c(C)c12,inactive: -5.84%,–
Cc1ccc(-c2noc(-c3nnn(-c4ccc(Br)cc4F)c3C)n2)cc1,inactive: 8.42%,–
O=C(Nc1ccc(F)cc1)c1cc2cc3ccc(Cl)cc3nc2o1,inactive: -3.79%,–
CCc1c(C)sc2c1CCN(C(=O)Nc1cc(C)ccc1C)C2c1ccc(OC)cc1 (centres undefined),inactive: -27.5%,–
COc1ccc(-n2ncc(C(=O)NCCN3CCOCC3)c2C2CCN(C(=O)OC(C)(C)C)CC2)cc1,inactive: 2.88%,–
COc1ccc(OC)c(CCNC(=O)Cn2nc(C)n3c(cc4sccc43)c2=O)c1,inactive: 3.8%,–
CC[C@H](C)C(=O)O[C@H]1C[C@H](O)C=C2C=C[C@H](C)[C@H](CC[C@@H](O)C[C@@H](O)CC(=O)O)[C@H]21,inactive: 6.2%,–
COc1cc(OC)c(NC(=O)N2CCc3cc(S(=O)(=O)N4CCC(C)CC4)ccc32)cc1Cl,inactive: -15.5%,–
O=c1oc2ccc3ccccc3c2cc1-c1nnc(Nc2cccc(C(F)(F)F)c2)s1,inactive: 18.4%,–
